2 molecules from article PMC5612953, “Stable MOB1 interaction with Hippo/MST is not essential for development and tissue growth control” (Nature Communications, 2017) can be followed below.

By UniProt entry, the sequences of proteins in these tests, tags left out.
UniProt Q15208: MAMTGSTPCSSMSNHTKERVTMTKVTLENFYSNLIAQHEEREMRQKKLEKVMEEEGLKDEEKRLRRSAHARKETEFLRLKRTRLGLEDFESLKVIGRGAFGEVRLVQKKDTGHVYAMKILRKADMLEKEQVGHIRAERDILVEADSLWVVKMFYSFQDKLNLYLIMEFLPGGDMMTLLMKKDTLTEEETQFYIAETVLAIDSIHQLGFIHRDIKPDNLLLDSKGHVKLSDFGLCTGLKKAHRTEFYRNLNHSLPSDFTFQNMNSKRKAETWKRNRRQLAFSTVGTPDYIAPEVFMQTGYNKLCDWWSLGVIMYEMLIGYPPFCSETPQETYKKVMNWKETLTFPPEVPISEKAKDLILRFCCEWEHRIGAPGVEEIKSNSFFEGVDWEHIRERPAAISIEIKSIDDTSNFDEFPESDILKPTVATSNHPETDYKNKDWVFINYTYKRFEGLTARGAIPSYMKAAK
UniProt Q9Y2H1: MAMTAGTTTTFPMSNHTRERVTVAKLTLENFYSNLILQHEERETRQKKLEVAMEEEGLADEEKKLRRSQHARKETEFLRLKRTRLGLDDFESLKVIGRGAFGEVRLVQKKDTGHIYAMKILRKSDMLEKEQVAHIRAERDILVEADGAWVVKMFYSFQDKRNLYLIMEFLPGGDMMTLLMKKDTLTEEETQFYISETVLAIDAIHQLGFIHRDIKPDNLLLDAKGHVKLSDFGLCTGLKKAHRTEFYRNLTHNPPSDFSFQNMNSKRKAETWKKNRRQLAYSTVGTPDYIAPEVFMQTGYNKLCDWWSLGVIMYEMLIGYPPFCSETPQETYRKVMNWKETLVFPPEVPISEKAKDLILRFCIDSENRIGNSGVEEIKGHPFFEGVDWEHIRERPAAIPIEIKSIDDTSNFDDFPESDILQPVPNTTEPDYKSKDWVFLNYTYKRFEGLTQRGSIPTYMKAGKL

Common to all, as to experiment: co-IP; HEK293 cells co-expressing myc-MOB1A variants and HA-tagged kinases; IP with anti-HA (12CA5), blot anti-myc; low-stringency buffer (30 mM HEPES pH 7.4, 20 mM KCl, 1% TX-100)
Experiment [1] addresses T1, HA-tagged full-length wild-type human LATS2 (human) (UniProt Q9NRM7).
T1 sequence: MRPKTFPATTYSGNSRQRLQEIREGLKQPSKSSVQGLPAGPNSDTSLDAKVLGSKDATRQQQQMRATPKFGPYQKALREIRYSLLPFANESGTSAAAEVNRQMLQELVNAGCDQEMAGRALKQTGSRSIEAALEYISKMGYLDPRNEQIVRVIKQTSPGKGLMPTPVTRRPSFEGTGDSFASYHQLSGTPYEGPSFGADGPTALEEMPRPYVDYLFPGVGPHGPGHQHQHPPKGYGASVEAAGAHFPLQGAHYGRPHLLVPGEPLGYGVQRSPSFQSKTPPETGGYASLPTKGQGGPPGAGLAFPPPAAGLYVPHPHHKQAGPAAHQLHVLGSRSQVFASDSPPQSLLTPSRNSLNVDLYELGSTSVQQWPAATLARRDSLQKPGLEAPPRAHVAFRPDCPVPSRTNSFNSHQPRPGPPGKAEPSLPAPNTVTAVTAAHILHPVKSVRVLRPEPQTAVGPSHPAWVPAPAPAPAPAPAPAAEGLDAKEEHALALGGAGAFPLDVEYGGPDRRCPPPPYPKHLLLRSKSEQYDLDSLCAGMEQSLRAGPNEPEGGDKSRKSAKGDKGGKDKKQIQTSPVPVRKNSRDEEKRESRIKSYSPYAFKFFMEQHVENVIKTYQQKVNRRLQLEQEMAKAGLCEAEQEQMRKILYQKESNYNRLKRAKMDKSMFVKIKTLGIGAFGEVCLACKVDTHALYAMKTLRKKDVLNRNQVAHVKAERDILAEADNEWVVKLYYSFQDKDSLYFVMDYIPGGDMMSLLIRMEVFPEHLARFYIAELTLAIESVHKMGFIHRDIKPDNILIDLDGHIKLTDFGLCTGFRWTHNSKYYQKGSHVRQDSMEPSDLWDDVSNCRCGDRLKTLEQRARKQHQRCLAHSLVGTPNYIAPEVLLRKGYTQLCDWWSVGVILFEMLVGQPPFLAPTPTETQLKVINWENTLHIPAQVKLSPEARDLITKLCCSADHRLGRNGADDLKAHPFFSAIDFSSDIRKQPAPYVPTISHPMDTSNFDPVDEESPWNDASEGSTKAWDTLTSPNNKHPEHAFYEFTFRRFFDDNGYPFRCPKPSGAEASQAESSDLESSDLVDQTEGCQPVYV

Experiment [2] concerns the target T2, full-length HA-MST2 wild-type (human) (UniProt Q13188).
T2 sequence: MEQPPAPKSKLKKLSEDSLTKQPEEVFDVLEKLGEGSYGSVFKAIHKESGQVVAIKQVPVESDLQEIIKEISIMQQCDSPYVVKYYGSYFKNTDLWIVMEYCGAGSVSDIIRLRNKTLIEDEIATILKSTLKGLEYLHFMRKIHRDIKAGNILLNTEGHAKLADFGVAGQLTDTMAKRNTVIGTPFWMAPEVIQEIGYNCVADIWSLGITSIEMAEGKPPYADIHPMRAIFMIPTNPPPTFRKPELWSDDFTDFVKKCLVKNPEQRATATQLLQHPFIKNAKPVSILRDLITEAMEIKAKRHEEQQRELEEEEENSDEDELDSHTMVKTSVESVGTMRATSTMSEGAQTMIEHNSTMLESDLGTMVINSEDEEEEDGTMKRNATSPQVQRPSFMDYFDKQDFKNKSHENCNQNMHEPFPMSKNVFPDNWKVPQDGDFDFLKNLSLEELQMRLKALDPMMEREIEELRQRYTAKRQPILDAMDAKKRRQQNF

Experiment [3] concerns the target T3, full-length HA-MST1 wild-type (human) (UniProt Q13043).
T3 sequence: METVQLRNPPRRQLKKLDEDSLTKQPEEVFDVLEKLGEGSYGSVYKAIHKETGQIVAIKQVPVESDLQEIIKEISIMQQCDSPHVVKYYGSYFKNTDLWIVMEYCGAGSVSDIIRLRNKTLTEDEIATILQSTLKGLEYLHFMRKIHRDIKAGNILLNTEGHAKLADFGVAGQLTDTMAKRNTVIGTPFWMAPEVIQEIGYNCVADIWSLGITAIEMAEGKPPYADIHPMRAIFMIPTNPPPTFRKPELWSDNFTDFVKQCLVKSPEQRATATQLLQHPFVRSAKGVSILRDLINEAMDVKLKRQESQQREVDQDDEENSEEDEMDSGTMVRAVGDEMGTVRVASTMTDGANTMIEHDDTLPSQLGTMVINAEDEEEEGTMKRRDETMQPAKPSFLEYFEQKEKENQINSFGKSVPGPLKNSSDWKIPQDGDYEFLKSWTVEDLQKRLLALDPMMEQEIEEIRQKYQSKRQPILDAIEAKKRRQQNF

Experiment [4] addresses HA-tagged wild-type human NDR1 (human) (UniProt Q15208).
Experiment [5] has as its target HA-tagged wild-type human NDR2 (human) (UniProt Q9Y2H1).
In experiment [6] the target is T4, HA-tagged wild-type human LATS1 (human) (UniProt O95835).
T4 sequence: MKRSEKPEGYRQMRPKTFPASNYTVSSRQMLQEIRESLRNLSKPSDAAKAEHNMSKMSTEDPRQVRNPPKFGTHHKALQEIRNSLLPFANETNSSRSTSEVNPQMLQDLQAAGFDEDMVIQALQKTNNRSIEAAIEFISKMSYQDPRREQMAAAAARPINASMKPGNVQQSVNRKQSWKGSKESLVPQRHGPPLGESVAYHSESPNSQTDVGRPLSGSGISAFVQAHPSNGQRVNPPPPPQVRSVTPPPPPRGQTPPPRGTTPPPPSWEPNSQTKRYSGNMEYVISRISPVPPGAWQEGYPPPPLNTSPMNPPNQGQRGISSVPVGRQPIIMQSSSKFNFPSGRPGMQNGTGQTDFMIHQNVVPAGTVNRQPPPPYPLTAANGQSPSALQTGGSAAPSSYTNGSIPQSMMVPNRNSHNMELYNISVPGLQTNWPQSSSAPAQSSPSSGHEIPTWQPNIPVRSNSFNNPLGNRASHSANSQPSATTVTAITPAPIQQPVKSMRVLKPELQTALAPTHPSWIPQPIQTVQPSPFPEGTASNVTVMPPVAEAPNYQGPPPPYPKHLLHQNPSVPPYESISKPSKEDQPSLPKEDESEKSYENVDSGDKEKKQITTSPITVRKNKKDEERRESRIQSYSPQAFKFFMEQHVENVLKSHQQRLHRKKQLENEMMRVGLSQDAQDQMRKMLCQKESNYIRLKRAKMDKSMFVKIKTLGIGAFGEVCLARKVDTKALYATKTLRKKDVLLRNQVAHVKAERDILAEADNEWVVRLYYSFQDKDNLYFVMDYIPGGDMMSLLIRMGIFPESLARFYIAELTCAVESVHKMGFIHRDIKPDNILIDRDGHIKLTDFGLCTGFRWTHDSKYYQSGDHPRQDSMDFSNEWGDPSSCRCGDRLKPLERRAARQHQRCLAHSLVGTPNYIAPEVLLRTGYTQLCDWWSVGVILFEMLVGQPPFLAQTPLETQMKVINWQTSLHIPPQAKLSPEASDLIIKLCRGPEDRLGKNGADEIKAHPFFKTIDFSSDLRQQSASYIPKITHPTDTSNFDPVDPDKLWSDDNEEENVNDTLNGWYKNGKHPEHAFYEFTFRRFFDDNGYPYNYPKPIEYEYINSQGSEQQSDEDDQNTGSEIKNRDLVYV

These are yes or no findings as the source states them, for the method shown. Binding seen in cells or lysates may run through a third protein. Some binding calls cover weakened binding; strength is not graded here. Sequences can lack the tags named with a protein.

B1: myc-tagged full-length human MOB1A(D63V) (HEK293) (protein, UniProt Q9H8S9 1-216)
chain: MSFLFSSRSSKTFKPKKNIPEGSHQYELLKHAEATLGSGNLRQAVMLPEGEDLNEWIAVNTVVFFNQINMLYGTITEFCTEASCPVMSAGPRYEYHWADGTNIKKPIKCSAPKYIDYLMTWVQDQLDDETLFPSKIGVPFPKNFMSVAKTILKRLFRVYAHIYHQHFDSVMQLQEEAHLNTSFKHFIFFVQEFNLIDRRELAPLQELIEKLGSKDR
Take B1: the binding result is recorded as “no binding” in experiment [1]; “binds” in experiment [2]; “binds” in experiment [3]; “binds” in experiment [4]; “binds” in experiment [5]; “no binding” in experiment [6].

B2: myc-tagged full-length human MOB1A(D63V/K104E/K105E) (HEK293) (protein, UniProt Q9H8S9 1-216)
chain: MSFLFSSRSSKTFKPKKNIPEGSHQYELLKHAEATLGSGNLRQAVMLPEGEDLNEWIAVNTVVFFNQINMLYGTITEFCTEASCPVMSAGPRYEYHWADGTNIEEPIKCSAPKYIDYLMTWVQDQLDDETLFPSKIGVPFPKNFMSVAKTILKRLFRVYAHIYHQHFDSVMQLQEEAHLNTSFKHFIFFVQEFNLIDRRELAPLQELIEKLGSKDR
For the molecule B2, the binding result in experiment [1] is recorded as “no binding”; in experiment [2], “no binding”; in experiment [3], “no binding”; in experiment [4] it was “binds”; in experiment [5] it was “binds”; in experiment [6], “no binding”.
